# Hit rate of the full screen: of about 230,000 compounds, about 3,600 (1.6%) were called active. This list was built around the results that the source calls inconclusive (neither active nor inactive); the mix of calls is not that of the screen. Calls follow the shape of the dose curve; as a rule, active = well fitted inhibition curve with a large enough effect (not every such curve was filed as active); inconclusive = small, poorly fitted or top-dose-only effect, or another doubt; inactive = no such curve, though single readings can be large or run the other way. Potencies beside an inconclusive call are fits to weak or partial responses and may not hold up.
# Biological target: Lysine-specific demethylase 4E (Homo sapiens) (UniProt B2RXH2)
# Assay: qHTS Assay for Inhibitors of Human Jumonji Domain Containing 2E (JMJD2E)
# Conditions: JMJD2E catalytic domain, FDH-coupled NADH fluorescence (FDH is formaldehyde dehydrogenase); series mostly up to 57.1 µM; activity change, negative = inhibition: at the top concentration
# Also: nearly all actives have a fitted effect of over 50% in size.
# 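For activity change, negative = inhibition in this document: 0% = wells with enzyme and -100% = buffer wells without enzyme.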
# Potency is read from the fitted curve at half-maximal effect; tags tell the direction and shape of the fitted curve.
# Chain of UniProt B2RXH2 (B2RXH2 whole entry, looked up, the tested form may be a part): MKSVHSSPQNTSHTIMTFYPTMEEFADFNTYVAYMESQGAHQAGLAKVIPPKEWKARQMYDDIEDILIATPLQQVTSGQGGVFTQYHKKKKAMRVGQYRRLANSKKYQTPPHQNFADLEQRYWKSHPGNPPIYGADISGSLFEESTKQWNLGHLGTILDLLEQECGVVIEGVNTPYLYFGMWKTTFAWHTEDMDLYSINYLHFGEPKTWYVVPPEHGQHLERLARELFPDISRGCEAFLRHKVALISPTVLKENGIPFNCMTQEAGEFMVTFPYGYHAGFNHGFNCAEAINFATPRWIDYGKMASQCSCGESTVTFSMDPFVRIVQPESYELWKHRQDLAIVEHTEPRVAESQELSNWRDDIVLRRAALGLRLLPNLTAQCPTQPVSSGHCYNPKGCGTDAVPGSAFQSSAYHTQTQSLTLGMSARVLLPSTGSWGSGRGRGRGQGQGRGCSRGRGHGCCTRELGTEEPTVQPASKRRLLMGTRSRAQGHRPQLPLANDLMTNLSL
SMILES,Potency,"activity change, negative = inhibition"
c1cncc(-c2nc3cc4ccccc4cc3[nH]2)c1,"inconclusive: 31.6 µM [inhibitor, partial curve]",–
COCCNC(=O)c1ccc2c(=O)n(Cc3ccco3)c(SCC(=O)NC3CCCC3)nc2c1,"inconclusive: 35.5 µM [inhibitor, single point]",–
CCCCn1c(=O)c(CCC(=O)OCC(=O)Nc2ccc(C)c(Cl)c2)nc2ccccc21,"inconclusive: 22.4 µM [inhibitor, partial curve]",–
CCOC(=O)c1nc(-c2ccccc2)oc1N(C)C,"inconclusive: 31.6 µM [inhibitor, partial curve]",–
COCCCNC(=O)c1cc2c(=O)n(C)c3ccccc3c2n1C,"inconclusive: 31.6 µM [inhibitor, partial curve]",–
Cn1c2ccccc2c2ncn(CCC3=CCCCC3)c(=O)c21,"inconclusive: 31.6 µM [inhibitor, single point]",–
CC(=O)c1ccc(N2CCN(C(=O)c3ccc4nc[nH]c4c3)CC2)cc1,"inconclusive: 3.16 µM [inhibitor, single point]",–
COc1cc(/C=C/C(=O)O)cc(S(=O)(=O)N(C)CCO)c1OC,"inconclusive: 31.6 µM [inhibitor, single point]",–
Cc1ccc2nc(C3CCCN3Cc3nc(CCC(C)C)no3)[nH]c2c1 (centres undefined),–,inactive: 1.11%
CCN(CC)CCCNC(=O)C(C)n1nc(C)c2sc3ccccc3c2c1=O (centres undefined),"inconclusive: 39.8 µM [inhibitor, single point]",–
CC[C@@H]1Cn2c(c3nc(-c4ccccc4)nc-3n(C)c2=O)N1,"inconclusive: 28.2 µM [inhibitor, partial curve]",–
CCN(CC)S(=O)(=O)c1ccc(N2CCOCC2)c(NC(=O)COc2ccccc2C#N)c1,–,inactive: -8.44%
COC(=O)c1sc(-c2ccc(C(C)(C)C)cc2)cc1NC(=O)CCC(=O)O,"inconclusive: 31.6 µM [inhibitor, partial curve]",–
Cc1nnc(N/N=C\c2ccc(-c3cccc(C(=O)O)c3)o2)n1N,"inconclusive: 28.2 µM [inhibitor, partial curve]",–
COCCNC(=O)COc1ccc(C)cc1C,–,inactive: -3.43%
CCC(Sc1nnc(C)s1)C(=O)Nc1nccs1 (centres undefined),–,inactive: -0.76%
OC(CNc1ccccc1)Cn1ccc2ccccc21 (centres undefined),"inconclusive: 31.6 µM [inhibitor, single point]",–
CCCCCn1c(C)c2c(OCC)cccc(=O)c2c1C,"inconclusive: 31.6 µM [inhibitor, single point]",–
COC(=O)CC1=C(C(=O)OC)C(c2cc(OC)c(OC)cc2OC)C(C#N)=C(N)O1 (centres undefined),"inconclusive: 28.2 µM [inhibitor, partial curve]",–
CC1=CC(=O)C=C(C)C1=NOC(=O)/C=C\c1ccccc1,–,inactive: -13.2%
CCC(=O)/C=C1\Sc2ccccc2N1CC,–,inactive: -12.4%
O=c1c2c(nc3n1CCS3)c1cc(F)ccc1n2Cc1cc(=O)n2cc(Cl)ccc2n1,–,inactive: 6.77%
Cn1c(=O)cc(SCC(=O)Nc2cccnc2)c2ccccc21,"inconclusive: 39.8 µM [inhibitor, single point]",–
O=C(c1ccccc1)c1ccc2nc(Nc3ccccc3)c3nncn3c2c1,"inconclusive: 35.5 µM [inhibitor, single point]",–
CCN(CC)S(=O)(=O)c1ccc(/C=C/C(=O)Nc2ccc(N3CCOCC3)cc2)cc1,–,inactive: 3.9%

SMILES,Potency,"activity change, negative = inhibition"
CCn1c(/C=N/c2nc3ccccc3n2C)nc2ccccc21,"inconclusive: 28.2 µM [inhibitor, single point]",–
O=C(CCN1C(=O)c2cccc3cccc(c23)C1=O)N1CCOCC1,"inconclusive: 28.2 µM [inhibitor, partial curve]",–
COc1ccc(CNC(=O)CNC(=O)c2c(C)nn(C)c2Cl)cc1,–,inactive: 2.31%
O=S(=O)(Nc1ccc2oc(-c3ccccc3)nc2c1)c1ccccc1,"inconclusive: 25.1 µM [inhibitor, single point]",–
CCN(CC)c1ccc2cc(C#N)c(=O)oc2c1,"inconclusive: 35.5 µM [inhibitor, partial curve]",–
CC(C)(C)C1=CC(=O)C(=O)C(C(C)(C)C)=C1,–,inactive: -3.92%
CC1(C)CC(=O)C(CC2C(=O)CC(C)(C)CC2=O)C(=O)C1,–,inactive: -0.138%
O=C(Nc1cccc(C(F)(F)F)c1)c1cc2ncc(Br)cn2n1,"inconclusive: 25.1 µM [inhibitor, single point]",–
Cc1ccc(C(=O)Nc2nc(-c3ccccn3)cs2)o1,"inconclusive: 39.8 µM [inhibitor, single point]",–
O=C(Nc1ncc2c(n1)-c1ccccc1OC2)c1cccc([N+](=O)[O-])c1,"inconclusive: 35.5 µM [inhibitor, partial curve]",–
Cc1cc(N2CCN(c3ccccn3)CC2)n2cc(-c3ccccc3)nc2n1,"inconclusive: 25.1 µM [inhibitor, partial curve]",–
COc1ccc(NC(=O)N2CCN(c3nc(-c4cccc(OC)c4)cs3)CC2)cc1,–,inactive: -2.19%
CCOC(=O)c1sc(N)c(C(=O)Nc2ccccc2OC)c1C,–,inactive: -18.3%
CSc1nc2nc3c(cc2c(=O)n1-c1ccccc1)COC(C)(C)C3,"inconclusive: 22.4 µM [inhibitor, single point]",–
CC(=O)c1ccc(NC(=O)COC(=O)CCc2ccc(S(=O)(=O)N3CCOCC3)cc2)cc1,–,inactive: -5.47%
COCCSc1ccccc1C(=O)NCCc1ccccc1,–,inactive: 5.9%
CCc1nc(N)c(C#N)c(-c2ccc(F)cc2)c1C,"inconclusive: 35.5 µM [inhibitor, single point]",–
CCCCN1C(=O)CCC(C(=O)O)C1c1ccccc1 (centres undefined),–,inactive: -5.78%
Cc1ccc(NCCC(=O)c2ccc(Br)cc2)cc1,–,inactive: 7.86%
O=c1[nH]c(S)c(/C=C2\C=Nc3ccccc32)s1,–,inactive: 1.96%
Cn1c(=O)c2[nH]c(-c3ccc(S(=O)(=O)O)cc3)nc2n(C)c1=O,"inconclusive: 12.6 µM [inhibitor, partial curve]",–
CCCn1c(-c2ccc(OC)cc2)nc2nc3ccccc3nc21,"inconclusive: 10 µM [inhibitor, partial curve]",–
COc1ccc(/C=N/NC(=O)c2ccc(COc3ccccc3Cl)o2)cc1,"inconclusive: 31.6 µM [inhibitor, partial curve]",–
O=C(CSCc1ccc(Cl)cc1)NN=C1CCCCCC1,–,inactive: 6.62%
CC(=O)N(C)C1=C(N2CCOCC2)C(=O)c2ccccc2C1=O,"inconclusive: 39.8 µM [inhibitor, single point]",–

SMILES,Potency,"activity change, negative = inhibition"
CC(=O)Nc1ccc(S(=O)(=O)Nc2nc3ccccc3nc2Nc2cccc(S(N)(=O)=O)c2)cc1,"inconclusive: 15.8 µM [inhibitor, partial curve]",–
CCCCNC(=O)COC(=O)c1c2c(nc3ccccc13)/C(=C/c1cccs1)CC2,–,inactive: 4.73%
COc1ccc(S(=O)(=O)N(C)Cc2cccs2)cc1Br,–,inactive: -2.17%
O=C(O)c1cccc(Cn2c(Cl)c(/C=N/NC(=O)c3ccccc3Cl)sc2=O)c1,"inconclusive: 35.5 µM [inhibitor, single point]",–
CCOc1ccc2oc(C(=O)O)c(C)c2c1,"inconclusive: 20 µM [inhibitor, partial curve]",–
Cc1ccc(NC(=O)CNCc2ccccn2)cc1S(=O)(=O)N(C)C,"inconclusive: 20 µM [inhibitor, single point]",–
S=C1NC2(CCCCC2)Nc2ccccc21,"inconclusive: 28.2 µM [inhibitor, single point]",–
CCCCCCCc1nc2sc3c(c2c(=O)n1N)CC(C)(C)OC3,–,inactive: 0.0232%
COc1ccc(NC(=O)c2sccc2SCc2cccc(C(F)(F)F)c2)cc1,–,inactive: -16.5%
Cc1cc(C)c2oc(-c3ccc(Cl)c(NC(=O)c4ccc(C#N)cc4F)c3)nc2c1,"inconclusive: 1.26 µM [inhibitor, single point]",–
CCOc1cnc(-c2ccc(OC)cc2)o1,"inconclusive: 31.6 µM [inhibitor, single point]",–
CSc1nnc(-c2cc3ccccc3cc2O)n1C,"inconclusive: 31.6 µM [inhibitor, partial curve]",–
CSc1ccc(S(=O)(=O)N2CCN(Cc3ccc4c(c3)OCO4)CC2)cc1,–,inactive: -1.56%
CCOC(=O)c1[nH]c2ccccc2c1NC(=O)CN1CCCCC1,"inconclusive: 39.8 µM [inhibitor, single point]",–
CCCCC#Cc1ccc(C(=O)NNC(=O)Nc2ccccc2)o1,–,inactive: -4.95%
COc1ccccc1/C=C1\Cc2ccccc2C1=O,"inconclusive: 39.8 µM [inhibitor, single point]",–
Cn1cccc1-c1cc(C(=O)N/N=C/c2cccc(O)c2)[nH]n1,–,inactive: -6.46%
Cc1cccc2[nH]c3c(N4CCC5(CC4)OCCO5)ncnc3c12,"inconclusive: 28.2 µM [inhibitor, partial curve]",–
CCOC(=O)c1cc(NC(=O)C2C3CCC(O3)C2C(=O)O)cc(C(=O)OCC)c1 (centres undefined),"inconclusive: 28.2 µM [inhibitor, partial curve]",–
CCN(C(=O)CSc1nnc(-c2ccncc2)n1-c1ccccc1)C1CCS(=O)(=O)C1 (centres undefined),"inconclusive: 28.2 µM [inhibitor, single point]",–
Cc1cc(N/N=C/c2cccc(Cl)c2)nc(-n2nc(C)cc2C)n1,"inconclusive: 28.2 µM [inhibitor, single point]",–
Cc1ccc(NC(=S)c2ccc(N(C)C)cc2)cc1,"inconclusive: 10 µM [inhibitor, partial curve]",–
CCOc1ccc(C(=O)NCC(=O)OCC(=O)c2ccc3c(c2)-c2ccccc2C3)cc1,"inconclusive: 35.5 µM [inhibitor, single point]",–
COc1cc(-c2c(C#N)c(=O)[nH]c3c2c(C)nn3-c2ccccc2)ccc1O,"inconclusive: 28.2 µM [inhibitor, partial curve]",–
